{
  "source": "PubChem BioAssay AID485297",
  "about": "(National Center for Advancing Translational Sciences (NCATS), 2010)",
  "note": "Screen size: about 320,000 compounds; about 9,100 (2.8%) were called active. The shares of active, inactive and inconclusive entries below differ from those in the screen. Calls follow the shape of the dose curve; as a rule, active = well fitted activation curve with a large enough effect; inconclusive = small, poorly fitted or top-dose-only effect; inactive = no such curve, though single readings can be large or run the other way. No potency is given beside an inconclusive call; the fits are too rough. Potency is read from the fitted curve at half-maximal effect; tags tell the direction and shape of the fitted curve.",
  "data": [
    {"experiment": "qHTS Assay for Rab9 Promoter Activators; also: nearly all actives have a fitted effect of over 60% in size; as to activation, negative = inhibition: % of control where 0% means no effect", "conditions": "Huh7 Rab9 promoter-luciferase reporter, luminescence, 24 h; series mostly up to 9.22 µM; activation, negative = inhibition: at the top concentration", "outline": "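Cell-based reporter: Huh7 stable for Rab9 promoter-driven luciferase, plated in reduced-serum medium with 10% FBS at 1500 cells/well, compound-treated 24 h at 37 °C, luminescence read after 10 min reagent.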", "values": [
      {"smiles": "COc1ccc(/C(C)=N/NC(=O)c2ccccc2N)cc1", "Potency": "inconclusive [activator, single point]"},
      {"smiles": "O=C(COc1ccccc1Cl)c1ccc[nH]1", "Potency": "inconclusive [activator, partial curve]"},
      {"smiles": "CCCc1cc(=O)n2nc(N3CCC(C(=O)Nc4cccc(C(C)=O)c4)CC3)sc2n1", "activation, negative = inhibition": "inactive: -2.73%"},
      {"smiles": "CC(=O)c1c(C)[nH]c(C(=O)Nc2ccc(C)cc2Br)c1C", "Potency": "active: 0.891 µM"},
      {"smiles": "O=C(NC(=O)c1csnn1)Nc1ccccc1Cl", "Potency": "inconclusive [activator, partial curve]"},
      {"smiles": "COc1ccc(CNC(=O)Cn2cccc2C(=O)c2ccccc2)cc1", "Potency": "inconclusive [activator, partial curve]"},
      {"smiles": "O=c1c2cc(-c3ccccc3)sc2nc2n1N=C(c1ccccc1)CS2", "Potency": "active: 1.78 µM"},
      {"smiles": "O=C(NC1CC1)c1cccc(NC(=O)c2cn3ccccc3n2)c1", "Potency": "active: 3.16 µM"},
      {"smiles": "CCOc1ccc2nc(NC(=O)C3=NNC(=O)CC3)sc2c1", "Potency": "inconclusive [activator, partial curve]"},
      {"smiles": "Fc1cccc(/C=N/N=C/c2cccc(F)c2)c1", "Potency": "inconclusive [activator, partial curve]"},
      {"smiles": "CC(=O)c1sc(NC(=O)c2ccc(C(C)(C)C)cc2)nc1C", "Potency": "active: 1.58 µM"},
      {"smiles": "Cc1ccc(C(=O)N2CCCc3ccccc32)c(F)c1F", "activation, negative = inhibition": "inactive: -3.25%"},
      {"smiles": "COc1cc(CN2CCC(C(=O)NCCC(C)C)CC2)ccc1OCc1ccccc1", "Potency": "inconclusive [activator, partial curve]"},
      {"smiles": "CC(C)(C)c1ccc(C(=O)Nc2cccc(-n3cnnn3)c2)cc1", "Potency": "inconclusive [activator, single point]"},
      {"smiles": "COc1cccc(NC(=O)/C=C/c2ccc([N+](=O)[O-])cc2)c1", "Potency": "inconclusive [activator, single point]"},
      {"smiles": "NS(=O)(=O)c1cccc(NC(=O)CCS(=O)(=O)c2ccc(Cl)cc2)c1", "activation, negative = inhibition": "inactive: -6.52%"},
      {"smiles": "Cc1sc(C(=O)Nc2ccc3ccccc3c2)cc1CC(=O)O", "Potency": "inconclusive [activator, single point]"},
      {"smiles": "Cc1ccc(NC(=O)c2cccc(C(=O)OC(C)C)n2)c(Br)c1", "activation, negative = inhibition": "inactive: -2.53%"},
      {"smiles": "COc1ccc(N=c2oc3ccccc3cc2C(=O)Nc2ccccn2)cc1OC", "Potency": "inconclusive [activator, single point]"},
      {"smiles": "Cn1c2ccccc2c(=O)c2cc(C#Cc3ccccn3)ccc21", "Potency": "active: 5.01 µM"},
      {"smiles": "COc1ccccc1-c1noc(Cn2cc(S(=O)(=O)N3CCCC3)ccc2=O)n1", "activation, negative = inhibition": "inactive: 7.31%"},
      {"smiles": "C/C(=N/NC(=O)c1ccccc1)c1ccc(NC(=O)C(F)(F)F)cc1", "Potency": "inconclusive [activator, single point]"},
      {"smiles": "Cc1ccc(NC(=S)NNC(=O)c2nn(C)cc2Cl)cc1", "Potency": "inconclusive [activator, partial curve]"},
      {"smiles": "COc1ccc(C2OC3=C(Nc4cc(C)c(C)cc4N3)C2=O)cc1", "note": "(configuration not stated)", "Potency": "active: 2.82 µM"},
      {"smiles": "CCc1ccc(-c2nc(CS(=O)CC(=O)O)c(C)o2)cc1", "note": "(configuration not stated)", "Potency": "inconclusive [activator, partial curve]"},
      {"smiles": "C/C(=N\\NC(=O)C1CC1(C)c1ccccc1)c1ccco1", "note": "(configuration not stated)", "activation, negative = inhibition": "inactive: -4.35%"},
      {"smiles": "CC(=O)COc1ccc2c3c(c(=O)oc2c1C)CCCCC3", "Potency": "inconclusive [activator, partial curve]"},
      {"smiles": "Cn1cccc1C(=O)OCc1ccc(C(C)(C)C)cc1", "Potency": "inconclusive [activator, partial curve]"},
      {"smiles": "O=C(c1cccc(-c2nnc(-c3ccccc3)o2)c1)N1CCCCCC1", "Potency": "inconclusive [activator, single point]"},
      {"smiles": "Cn1c(Cn2c(=O)sc3ccccc32)nnc1SCC(=O)NCc1ccc(F)cc1", "activation, negative = inhibition": "inactive: 0.956%"},
      {"smiles": "Cc1cc(-c2nnc(CCC(=O)N(CC3CCC3)CC3CCCO3)o2)no1", "note": "(configuration not stated)", "Potency": "inconclusive [activator, single point]"},
      {"smiles": "Cn1c2ccccc2c2cc(/C=N/NC(=O)c3cc(O)cc(O)c3)ccc21", "Potency": "inconclusive [activator, single point]"},
      {"smiles": "CC1CCc2c(C(=O)Nc3cccc(-c4nn[nH]n4)c3)csc2C1", "note": "(configuration not stated)", "Potency": "inconclusive [activator, single point]"},
      {"smiles": "COc1ccc(NC(=O)c2sc(SC)nc2N)cc1", "Potency": "inconclusive [activator, single point]"},
      {"smiles": "CCn1nnc(NC(=O)c2cccc(-c3cc4ccccc4oc3=O)c2)n1", "Potency": "active: 2.51 µM"},
      {"smiles": "COc1ccccc1NC(=O)Cn1c2ccc(F)cc2c2nc3n(c(=O)c21)CCS3", "activation, negative = inhibition": "inactive: 5.1%"},
      {"smiles": "Nc1nc(Nc2cccc(F)c2)nc2ccccc12", "Potency": "active: 2.24 µM"},
      {"smiles": "CC1Cc2cc(/C(O)=C3/C(=O)C(=O)N(CCN4CCOCC4)C3c3cccc(Cl)c3)ccc2O1", "note": "(configuration not stated)", "Potency": "inconclusive [activator, single point]"},
      {"smiles": "c1ccc(-c2noc(-c3ccno3)n2)nc1", "activation, negative = inhibition": "inactive: 28.4%"},
      {"smiles": "Cc1ccc(-c2cnc(-c3ccccc3C(=O)O)o2)cc1", "Potency": "inconclusive [activator, partial curve]"},
      {"smiles": "COCCn1c(-c2ccc(Br)cc2)csc1=Nc1cccnc1", "activation, negative = inhibition": "inactive: -11.8%"},
      {"smiles": "c1cc(CSc2nnc(-c3ccc4c(c3)OCO4)o2)ccn1", "Potency": "active: 2.51 µM"},
      {"smiles": "CCN(C)c1ccc(/C=N\\n2nnnc2N)cc1", "activation, negative = inhibition": "inactive: 25.5%"},
      {"smiles": "CN(C)C1NC(=O)c2cc(-c3ccccc3)sc2N1", "note": "(configuration not stated)", "Potency": "inconclusive [activator, full curve]"},
      {"smiles": "O=C(O)c1cccc(NC(=O)c2cc(-c3cccc(Cl)c3)nc3ccccc23)c1", "Potency": "inconclusive [activator, partial curve]"},
      {"smiles": "C(=N\\N(c1ccccc1)c1ccccc1)/c1ccc2c(c1)OCO2", "activation, negative = inhibition": "inactive: -6.91%"},
      {"smiles": "CC(C(=O)O)c1ccc(N2Cc3ccccc3C2=O)cc1", "note": "(configuration not stated)", "Potency": "active: 0.316 µM"},
      {"smiles": "N#Cc1nc(Nc2cc(F)cc(F)c2)c2ncn(CC(F)F)c2n1", "Potency": "inconclusive [activator, partial curve]"},
      {"smiles": "CN(CC(=O)Nc1cc(Cl)cc(Cl)c1)Cc1cccs1", "activation, negative = inhibition": "inactive: 0.522%"},
      {"smiles": "Cc1cc(NC(=O)CSc2nc3ccccc3cc2C#N)no1", "Potency": "inconclusive [activator, single point]"},
      {"smiles": "CN(C)c1ccc(/C=C/C(=O)c2ccccc2O)cc1", "Potency": "inconclusive [activator, partial curve]"},
      {"smiles": "CCN(CC)c1ccc(NC(=S)NC(=O)c2ccco2)cc1", "Potency": "active: 1.58 µM"},
      {"smiles": "Fc1ccccc1-c1csc(-c2cccnc2)n1", "Potency": "inconclusive [activator, partial curve]"},
      {"smiles": "CSCCC(NC(=O)c1ccccc1Cl)C(=O)Nc1cccc(S(=O)(=O)N2CCCC2)c1", "note": "(configuration not stated)", "activation, negative = inhibition": "inactive: -3.77%"},
      {"smiles": "O=C(CSc1nnc(COc2ccccc2Cl)o1)Nc1ccccc1", "activation, negative = inhibition": "inactive: -3.51%"},
      {"smiles": "CCc1ccc(C(=O)Cn2ccsc2=N)cc1", "Potency": "active: 0.708 µM"},
      {"smiles": "O=C(NCc1cccs1)c1nc(-c2cccs2)no1", "Potency": "inconclusive [activator, single point]"},
      {"smiles": "CC1(C)CC(=O)c2sc(NC(=O)C3COc4ccccc4O3)nc2C1", "note": "(configuration not stated)", "Potency": "inconclusive [activator, single point]"},
      {"smiles": "CC(C)Oc1ccc(CSc2ncn[nH]2)cc1", "Potency": "inconclusive [activator, partial curve]"},
      {"smiles": "Cc1cc(Cl)ccc1N(CC(=O)NCc1ccc2c(c1)OCO2)S(C)(=O)=O", "activation, negative = inhibition": "inactive: -12%"},
      {"smiles": "O=C(COc1ccccc1Br)Nc1ccccc1C(F)(F)F", "activation, negative = inhibition": "inactive: -2.52%"},
      {"smiles": "CCOc1ccc(NC(=O)Cn2ncc3ccccc32)cc1", "Potency": "inconclusive [activator, partial curve]"},
      {"smiles": "CN(CC(=O)Nc1c(Cl)cccc1Cl)C(=O)C1=COCCO1", "activation, negative = inhibition": "inactive: 0.406%"},
      {"smiles": "O=C(O/N=C(/c1ccccc1)c1ccncc1)c1ccc(F)cc1", "activation, negative = inhibition": "inactive: -1.76%"},
      {"smiles": "CCCn1nc(C(=O)Nc2ccc3c(c2)OCCO3)c2ccccc2c1=O", "Potency": "inconclusive [activator, single point]"},
      {"smiles": "O=C(c1cccs1)c1ccc(-c2cccs2)s1", "Potency": "active: 0.501 µM"},
      {"smiles": "COc1ccccc1OCCCC(=O)Nc1nccs1", "Potency": "active: 2.24 µM"},
      {"smiles": "Cc1cc([N+](=O)[O-])nn1CCCC(=O)Nc1c(C)n(C)n(-c2ccccc2)c1=O", "activation, negative = inhibition": "inactive: 11.4%"},
      {"smiles": "CC(C)(C)c1ccc(C(=O)NCC(=O)NCC(C)(C)N2CCOCC2)cc1", "activation, negative = inhibition": "inactive: -5.98%"},
      {"smiles": "O=C(O)c1ccc(Oc2ccc(S(=O)(=O)c3ccc(C(=O)O)c(C(=O)O)c3)cc2)cc1", "activation, negative = inhibition": "inactive: -0.958%"},
      {"smiles": "CCN1CCN(Cc2ccc(NC(=O)c3cc(NC(=O)c4cc5cccc(OC)c5o4)cc(OC)c3)cc2C(F)(F)F)CC1", "activation, negative = inhibition": "inactive: -3.22%"},
      {"smiles": "C=CCn1c(-c2cccc(OC)c2)n[nH]c1=S", "activation, negative = inhibition": "inactive: -3.37%"},
      {"smiles": "COc1cccc(NC(=O)c2ccc3c(c2)CCCC3)c1", "Potency": "active: 1.41 µM"},
      {"smiles": "O=c1[nH]c(/C=C/c2ccc(Br)cc2)nc2ccccc12", "Potency": "active: 0.398 µM"},
      {"smiles": "NC(=O)N/N=C/c1ccc(OCc2cccc(Cl)c2)cc1", "activation, negative = inhibition": "inactive: 14.9%"},
      {"smiles": "Cc1cc(C)n(-c2ccc(Cl)c(C(=O)Nc3cc(C(F)(F)F)ccc3Cl)n2)n1", "activation, negative = inhibition": "inactive: -0.126%"},
      {"smiles": "CCOCC(=O)Nc1nc2ccccc2s1", "Potency": "inconclusive [activator, partial curve]"},
      {"smiles": "CCOC(=O)c1c(C)[nH]c(C(=O)COC(=O)CNC(=O)c2ccc(Br)cc2)c1C", "activation, negative = inhibition": "inactive: -0.412%"},
      {"smiles": "COc1ccc(C(=O)/C=C/Nc2cccc(O)c2)cc1", "Potency": "inconclusive [activator, single point]"},
      {"smiles": "Cc1ccc(-c2cc(C(=O)N3CCCCCC3)no2)cc1", "Potency": "active: 0.562 µM"},
      {"smiles": "O=C(N=c1nc2ccccn2s1)c1ccccc1", "Potency": "inconclusive [activator, partial curve, poor fit]"},
      {"smiles": "COc1ccc(C(=O)NCc2nnc(SCC(=O)Nc3nc4ccc(C)cc4s3)o2)cc1OC", "activation, negative = inhibition": "inactive: 11.2%"}
    ]}
  ]
}
